# Reference: PubChem BioAssay AID1347043 (National Center for Advancing Translational Sciences (NCATS), 2019)
# In all, about 76,000 compounds went through this assay and about 1,900 (2.5%) were called active. Inconclusive results, whose numbers are uncertain, are shown with a selection of clear calls. Calls come from the whole dose curve; as a rule, active = well fitted inhibition curve with a large enough effect; inconclusive = small, poorly fitted or top-dose-only effect; inactive = flat fitted curve, though single readings scatter. A potency beside an inconclusive call is a rough fit, not a confirmed value.
# Target: Luciferin 4-monooxygenase (Photinus pyralis) (UniProt P08659)
# UniProt P08659, sequence (P08659 whole entry, looked up): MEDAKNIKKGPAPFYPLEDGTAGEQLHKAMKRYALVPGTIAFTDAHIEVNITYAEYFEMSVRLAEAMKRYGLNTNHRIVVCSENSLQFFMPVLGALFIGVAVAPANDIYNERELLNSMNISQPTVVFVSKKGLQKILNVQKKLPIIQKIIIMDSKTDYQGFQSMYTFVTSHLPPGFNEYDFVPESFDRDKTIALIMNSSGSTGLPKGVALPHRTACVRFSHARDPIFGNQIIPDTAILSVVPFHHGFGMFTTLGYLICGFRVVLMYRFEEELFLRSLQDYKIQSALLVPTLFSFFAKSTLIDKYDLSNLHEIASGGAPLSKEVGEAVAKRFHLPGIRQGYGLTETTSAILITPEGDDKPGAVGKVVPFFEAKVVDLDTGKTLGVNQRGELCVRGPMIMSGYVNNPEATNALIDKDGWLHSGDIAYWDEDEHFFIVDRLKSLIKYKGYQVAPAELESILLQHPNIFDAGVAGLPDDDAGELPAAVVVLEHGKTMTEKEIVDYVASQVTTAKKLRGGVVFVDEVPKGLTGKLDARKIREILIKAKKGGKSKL
# Assay: Firefly luciferase inhibition profiling of diverse chemical library using quantitative high-throughput screening; note: nearly all actives have a fitted effect of over 65% in size
# Conditions: purified P. pyralis luciferase, luminescence, biochemical; series mostly up to 115 µM
# From the text: Firefly (Photinus pyralis) luciferase is one of the most commonly used transcriptional reporters for a number of reasons. It is considered one of the more dynamically responsive reporters - that is, responsive to changes in reporter transcription - as it requires no post-translational modifications and is enzymatically active directly after protein synthesis (Wood, 1998). Additionally, the half-life of the luciferase protein is short relative to other reporter-gene products (Wood, 1995). Whereas reporters with long half-lives potentially allow for increased signal due to accumulation of reporter-gene product, once accumulated in the cell, dynamic changes in reporter-gene expression may be difficult to detect(Fan and Wood, 2007; Almond et al., 2004). It has been shown that wild-type P. pyralis luciferase has a half-life of approximately four hours in mammalian cells (Thompson et al., 1991). Firefly luciferase reporter-gene assays are also generally considered one of the most sensitive assay types (Wood, 1995; Wood, 1998). Although light produced in a bioluminescence reaction is of lower intensity than that produced during fluorescence emission, this is offset by little to no background light inherent to luminescent assays. Thus the luciferase reporter can be expressed at much lower levels than fluorescent proteins while still providing robust signal. However, it was initially observed, in 1991, by Thompson et al., that compounds that resemble the substrates of firefly luciferase (FLuc) can act as competitive inhibitors of the enzyme, and that these compounds, upon interaction with luciferase in the cell, can actually stabilize the protein and increase its half-life. Accumulated intracellular FLuc protein can be measured as an increase in luminescence signal, upon addition of detection reagents (which contain high concentrations of FLuc substrates) commonly used in high-throughput screening. In cell-based reporter gene assays that use FLuc as the reporter gene to quantitate the potential influence of a given compound against the target biology, this apparent increase in luminescence can mistakenly be interpreted as identification of a compound that is active against the target of interest. FLuc inhibitory compounds that stabilize the FLuc protein will give an identical read-out, making it difficult to distinguish compounds that are active against the target from those active against FLuc. In summary, the results generated here constitutes a valuable resource for the scientific community and provides insight on identifying compounds with inhibitory activity for the commonly-used reporter, firefly luciferase. References: -Almond, B., Zdanovsky, A., Zdanovskaia, M., Ma, D., Stecha, P., Paguio, A., Garvin, D., and Wood, K. (2004). Introducing the Rapid Response Reporter Vectors. Promega Notes 87, 18-22. -Fan, F., and Wood, K.V. (2007). Bioluminescent assays for high-throughput screening. Assay Drug Dev Technol 5, 127-136. -Thompson, J.F., Hayes, L.S., and Lloyd, D.B. (1991). Modulation of firefly luciferase stability and impact on studies of gene regulation. Gene 103, 171-177. -Wood, K.V. (1998). The chemistry of bioluminescent reporter assays. Promega Notes 65, 14-20. -Wood, K.V. (1995). Marker proteins for gene expression. Curr Opin Biotechnol 6, 50-58.
# Reagents: 50mM Tris acetate, pH 7.5; 10mM Mg acetate; 10uM D-luciferin (Sigma #L9504); 10uM ATP; 0.01% Tween-20; 0.05% BSA; 10nM P. pyralis luciferase (Sigma #L9506) Control compounds used were two known firefly luciferase inhibitors (compounds (2) and (5) in Auld et al., 2010), and DMSO. Assay Summary: Three microliters containing firefly luciferase substrates in buffer (final concentrations: 50mM Tris acetate, pH 7.5, 10mM Mg acetate, 0.01% Tween-20, 0.05% BSA, 10uM D-luciferin, and 10uM ATP) are dispensed into each well of a Greiner white, solid-bottom 1536-well format plate using a flying reagent dispenser (FRD). […]
# Tags give direction and shape of the fitted curve.
row,SMILES,Potency
1,Cc1ccc(OCC(=O)NC2CCN(c3cc(-c4ccccc4)[nH]n3)CC2)cc1,inactive
2,O=C(O)C[C@@H]1CCN(C(=O)Cc2ccccc2)C[C@@H]1CCN1CCN(c2ccccc2)CC1,inactive
3,CCCCc1nc2cc(C(=O)N3CC(Oc4ccccc4OC)C3)ccc2o1,"inconclusive: 44.7 µM [inhibitor, partial curve]"
4,O=C(NCCc1ccccc1)C1CCN(C(=O)c2ncn3c2COC(c2ccc(F)cc2)C3)CC1 (stereo not drawn),"inconclusive: 44.7 µM [inhibitor, partial curve]"
5,COc1ccc2c(c1)CCc1c-2n[nH]c1C(=O)N1CCc2nc3cc(-c4ccccc4)[nH]n3c(=O)c2C1,"inconclusive: 10 µM [inhibitor, full curve]"
6,CN(Cc1cccnc1)C1CN(C(=O)C2CCCC2)C1,"inconclusive: 50.1 µM [inhibitor, partial curve]"
7,O=C(NCc1ccccc1Cl)c1noc(-c2ccc3c(c2)OCO3)n1,"inconclusive: 31.6 µM [inhibitor, partial curve]"
8,Cn1ncc(N2CCC(CNC(=O)C3=Cc4ccccc4OC=C3)C2)cc1=O (stereo not drawn),"inconclusive: 79.4 µM [inhibitor, partial curve, poor fit]"
9,O=C(Cn1c(=O)oc2ccccc21)N1CCCC(Cc2noc(-c3ccccc3)n2)C1 (stereo not drawn),active: 39.8 µM
10,Cc1ocnc1C(=O)N(C)CC1CCCN(CCc2ccc(Cl)cc2)C1 (stereo not drawn),inactive
11,CCOc1ccc(-c2cc3c(=O)n(CCNC(=O)c4cccc(C#N)c4)ccn3n2)cc1,active: 0.794 µM
12,CCNC(=O)C1C(c2cccc(NC(=O)c3ccc(OC)cc3)c2)OC(=O)N1Cc1ccc(C)cc1 (stereo not drawn),active: 11.2 µM
13,COc1ccc(-c2cc(N3CCCC(NC(=O)c4cc5ccccc5[nH]4)C3)n[nH]2)cc1 (stereo not drawn),active: 8.91 µM
14,COCCN1CCC2(C1)CN(C)c1ccc(C(=O)NCc3ccccc3)cc12 (stereo not drawn),active: 20 µM
15,Fc1ccccc1-c1nnc([C@H]2CCN(Cc3cccc(OC(F)(F)F)c3)C2)o1,inactive
16,CCOC(=O)N1CCC(COc2ccc3c(cnn3CC[S+](C)(=O)[O-])c2)CC1,"inconclusive: 70.8 µM [inhibitor, partial curve]"
17,CC(C)CC(=O)NC1CCCc2c1[nH]c1c(Cl)cccc21 (stereo not drawn),inactive
18,O=C(c1ccco1)N1CCc2nc3cc(-c4ccccc4Cl)[nH]n3c(=O)c2C1,"inconclusive: 28.2 µM [inhibitor, partial curve]"
19,O=C(NCCC1CCN(C(=O)Nc2cccc(F)c2)CC1)c1ccccc1F,"inconclusive: 39.8 µM [inhibitor, partial curve]"
20,CN1CCCCCC(O)c2cc(C(=O)N3CCOCC3)ccc21 (stereo not drawn),inactive
21,COCCn1cnc2ccc(-c3ccc4c(c3)OCO4)nc2c1=O,"inconclusive: 79.4 µM [inhibitor, partial curve]"
22,c1cc(CN2CCC(N3CC(OCC4CC4)C34CCOCC4)CC2)ccn1 (stereo not drawn),inactive
23,Fc1ccc(Nc2cc3c(cn2)CN(Cc2ccncc2)CCN3)cc1Cl,"inconclusive: 70.8 µM [inhibitor, partial curve]"

row,SMILES,Potency
1,O=C(Nc1cccc(F)c1)N1CC(Oc2ccc(-c3nc(-c4ccccc4)no3)cc2)C1,active: 2.51 µM
2,COc1cccc(CN2CCc3c(cc(C(=O)Nc4cc(OC)cc(OC)c4)n3C)C2)c1,"inconclusive: 39.8 µM [inhibitor, partial curve]"
3,COc1ccc(Nc2ccc3nnc(-c4ccc(C)cn4)n3n2)cc1,inactive
4,O=C1Cc2c(-c3cccc(O)c3)n[nH]c2CN1CC1CC1,"inconclusive: 141 µM [inhibitor, partial curve, poor fit]"
5,CN1CCN(Cc2ccc(Nc3cnc4ccc(-n5ccnc5)nn34)cc2)CC1,"inconclusive: 141 µM [inhibitor, single point]"
6,NS(=O)(=O)c1ccc(CCNC(=O)c2cc3n(n2)CC(c2ccc(Cl)cc2)OC3)cc1 (stereo not drawn),inactive
7,Cc1noc([C@@H]2CNC[C@H]2C(=O)N(C)Cc2ccc(N3CCOCC3)cc2)n1,inactive
8,Cc1noc(C)c1Cn1cc2c3c(cccc31)[C@H](CC(C)C)N[C@H](C(=O)NCCN(C)C)C2,inactive
9,COc1ccccc1-c1cnc(NC(=O)c2ccc(Cl)cc2)c2c1CCO2,"inconclusive: 35.5 µM [inhibitor, full curve]"
10,COc1cccc(Nc2ccc3c(n2)C(C)(C(=O)NC2CCC2)CN(C)C3)c1 (stereo not drawn),inactive
11,COc1ccc(-c2ccnc(N[C@H]3CO[C@H]4[C@@H]3OC[C@@H]4NC(=O)CC3(CC(=O)O)CCCC3)n2)cc1,"inconclusive: 50.1 µM [inhibitor, partial curve, poor fit]"
12,COc1ccc(-c2cc3c(=O)n(CCNC(=O)c4ccc(F)c(F)c4)ccn3n2)cc1,"inconclusive: 2.24 µM [inhibitor, full curve]"
13,Cc1nn(C)c2nc(-c3ccccn3)nc(NCC(c3ccco3)N(C)C)c12 (stereo not drawn),inactive
14,C[C@@H]1C(=O)O[C@H]2[C@H]1CC[C@@]1(C)Cc3sc(NS(=O)(=O)Cc4ccccc4)nc3[C@@H](C)[C@H]21,"inconclusive: 50.1 µM [inhibitor, partial curve]"
15,COCCn1ccc2cc(C(=O)Nc3ccc4c(c3)C(=O)N3CCC[C@H]3C(=O)N4)ccc21,"inconclusive: 39.8 µM [inhibitor, partial curve]"
16,O=C1c2cnc(-c3ccc(Oc4ccccc4)cc3)nc2OCCN1CC1CC1,"inconclusive: 28.2 µM [inhibitor, full curve]"
17,CN(Cc1ccccc1)C(=O)Cn1nc2c(cc1=O)CCCC2,"inconclusive: 50.1 µM [inhibitor, partial curve]"
18,COc1ccccc1CC(=O)N1CCCc2ncc(C(=O)Nc3ccc4[nH]ccc4c3)cc21,"inconclusive: 44.7 µM [inhibitor, full curve]"
19,c1ccc(CN2CCC(Oc3cnc4c(ccn4-c4cncnc4)c3)CC2)cc1,inactive
20,O=C(O)CCn1ncc2cc(OCC3CCN(C(=O)Oc4ccccc4Cl)CC3)ccc21,"inconclusive: 89.1 µM [inhibitor, single point]"
21,c1ccc(-c2cn3c(n2)CO[C@@H](CNCc2cccs2)C3)cc1,active: 5.62 µM
22,Nc1cccn2nc(-c3cccnc3)nc12,"inconclusive: 50.1 µM [inhibitor, partial curve]"
23,CNC(=O)c1cccc(-c2cnc(Nc3ccc(F)c(Cl)c3)c3c2CCO3)c1,active: 10 µM

row,SMILES,Potency
1,CN(C(=O)NC1CCCC1)C1CCc2ccccc2C1 (stereo not drawn),"inconclusive: 100 µM [inhibitor, partial curve]"
2,COc1cccc(CN2CCNc3cc(-c4ccccc4)ncc3C2)c1,active: 39.8 µM
3,Cn1c(C(=O)NC(C)(C)C)cc2c1CCN(Cc1ccc(F)cc1)C2,"inconclusive: 31.6 µM [inhibitor, partial curve]"
4,Cc1cc(-c2cc3c(cn2)CN(Cc2c[nH]c4ccccc24)CCN3)ccn1,"inconclusive: 56.2 µM [inhibitor, partial curve]"
5,CN1CCCCCC(O)c2cc(C(=O)NCCc3ccccn3)ccc21 (stereo not drawn),active: 44.7 µM
6,CN1c2cc(C(=O)Nc3cccc(OC(F)(F)F)c3)ccc2C(=O)N2CCCC21 (stereo not drawn),inactive
7,CCOc1ccc(C2Cn3nnc(-c4nc(-c5ccc(F)cc5)no4)c3CO2)cc1 (stereo not drawn),"inconclusive: 56.2 µM [inhibitor, partial curve]"
8,CN1c2cc(C(=O)NCCc3ccccc3)ccc2C(=O)N2CCCC21 (stereo not drawn),"inconclusive: 44.7 µM [inhibitor, partial curve, poor fit]"
9,COc1ccc(C(=O)N[C@H]2CO[C@H]3[C@@H]2OC[C@@H]3n2cc(-c3ccccn3)nn2)cc1,inactive
10,COc1cccc(CN2C[C@]34C=C[C@H](O3)C(C(=O)N3CCCCC3)C4C2=O)c1 (stereo partly drawn),inactive
11,CC(C)C[C@@H]1N[C@H](C(=O)N2CCC(NC(=O)c3ccccc3)CC2)Cc2c[nH]c3cccc1c23,inactive
12,Oc1ccccc1CN1C[C@H](O)C[C@H]1c1nc(-c2ccc(F)cc2)no1,"inconclusive: 112 µM [inhibitor, single point]"
13,c1ccc2[nH]c([C@H]3CCN(CC4CCCCC4)C3)nc2c1,"inconclusive: 89.1 µM [inhibitor, partial curve]"
14,CC(C)(C)CN1CCNc2cc(Nc3cccnc3)ncc2C1,active: 1.58 µM
15,CC(=O)Nc1cccc(C(=O)NC2CCCN(c3cc(-c4ccccc4)[nH]n3)C2)c1 (stereo not drawn),"inconclusive: 50.1 µM [inhibitor, partial curve, poor fit]"
16,O=C(NC1CCCCCCC1)C1CCN(C(=O)c2ncn3c2COC(c2ccccc2)C3)CC1 (stereo not drawn),active: 17.8 µM
17,Cn1ccc2c(C(=O)N[C@H](c3cccs3)C3CC(O)C3)cccc21 (stereo partly drawn),"inconclusive: 50.1 µM [inhibitor, partial curve, poor fit]"
18,CC(=O)N(C)Cc1ccc(-c2ccccc2)cc1,"inconclusive: 63.1 µM [inhibitor, partial curve]"
19,Cc1nn(-c2ccc(C(F)(F)F)cc2)c(C)c1[C@@H]1C=C[C@@H](NC(=O)Nc2cccc(C#N)c2)C1,active: 7.08 µM
20,CS(=O)(=O)c1ccc(O[C@H]2COCCN(c3nc4ccccc4s3)C2)cc1,"inconclusive: 112 µM [inhibitor, single point]"
21,COc1ccc(-c2cc(N3CCCC(NC(=O)c4ccccn4)C3)n[nH]2)cc1 (stereo not drawn),"inconclusive: 35.5 µM [inhibitor, partial curve]"
22,Cn1c(C(=O)NCCc2cnc[nH]2)nc2nc(-c3ccccc3)c(Cl)cc21,"inconclusive: 79.4 µM [inhibitor, partial curve]"
